Measured values reported in paper PMC4336329 (PLoS ONE, 2015).
In all, about 310,000 compounds went through this assay and about 14,000 (4.5%) showed an effect of 50% or more. The effect is printed as a negative number. This is one part of the list.

Biological target: human ether-à-go-go-related gene (hERG) potassium channel (human, UniProt Q12809)
Test: primary screen, population patch clamp on CHO cells stably expressing hERG
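Note: peak tail current of the secondary pulse compared with the same well before compound.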

human ether-à-go-go-related gene (hERG) potassium channel, sequence (Q12809 whole entry, looked up): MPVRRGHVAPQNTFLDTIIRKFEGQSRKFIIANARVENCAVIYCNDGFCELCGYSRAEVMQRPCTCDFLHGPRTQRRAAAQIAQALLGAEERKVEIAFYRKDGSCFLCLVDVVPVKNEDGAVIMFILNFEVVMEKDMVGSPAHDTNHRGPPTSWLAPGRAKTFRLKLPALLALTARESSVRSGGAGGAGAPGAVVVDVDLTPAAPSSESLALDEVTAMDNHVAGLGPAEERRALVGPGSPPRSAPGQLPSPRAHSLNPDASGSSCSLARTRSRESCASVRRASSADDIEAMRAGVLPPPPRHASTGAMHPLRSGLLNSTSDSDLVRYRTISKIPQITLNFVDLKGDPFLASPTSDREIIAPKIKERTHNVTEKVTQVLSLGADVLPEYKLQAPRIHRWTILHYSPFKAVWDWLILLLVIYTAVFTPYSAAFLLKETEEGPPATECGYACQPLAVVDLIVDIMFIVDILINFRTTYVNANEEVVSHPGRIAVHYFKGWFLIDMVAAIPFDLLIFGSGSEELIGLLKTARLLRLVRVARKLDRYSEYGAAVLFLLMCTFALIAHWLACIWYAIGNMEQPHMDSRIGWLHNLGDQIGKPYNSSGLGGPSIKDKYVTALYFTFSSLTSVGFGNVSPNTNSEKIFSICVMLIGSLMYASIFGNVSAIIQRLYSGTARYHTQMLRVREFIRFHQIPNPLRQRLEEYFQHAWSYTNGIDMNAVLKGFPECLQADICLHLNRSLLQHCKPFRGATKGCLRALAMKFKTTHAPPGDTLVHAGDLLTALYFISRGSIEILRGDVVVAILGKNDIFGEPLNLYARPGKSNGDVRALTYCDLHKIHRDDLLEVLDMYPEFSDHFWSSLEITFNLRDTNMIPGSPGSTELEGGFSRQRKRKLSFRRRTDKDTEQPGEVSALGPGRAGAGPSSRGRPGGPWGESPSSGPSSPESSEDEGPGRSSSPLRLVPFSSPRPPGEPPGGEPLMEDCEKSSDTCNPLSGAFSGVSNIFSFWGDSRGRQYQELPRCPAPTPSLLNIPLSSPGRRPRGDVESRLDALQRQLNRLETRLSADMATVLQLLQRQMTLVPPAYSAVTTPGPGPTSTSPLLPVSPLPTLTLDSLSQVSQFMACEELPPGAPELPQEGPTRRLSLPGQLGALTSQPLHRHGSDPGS

| SMILES | hERG current change (%, negative = inhibition) at 10uM [%] |
| --- | --- |
| CCn1nc(C)c(/C=N/NC(=O)Cn2cncn2)c1C | 17.4 |
| CCOc1ccc(NC(=O)CC2C(=O)Nc3ccccc3N2C(=O)c2ccccc2)cc1 (stereo not drawn) | -8.85 |
| COc1ccc(C(=O)NCC2OCCc3ccccc32)c(O)c1 (stereo not drawn) | 12.4 |
| Cc1ccc2c(C)c(C(=O)N(C)C(C)c3ccon3)oc2c1C (stereo not drawn) | -19.5 |
| CCc1cc(=O)oc2cc(C)cc(OC(C)C(=O)NC(Cc3c[nH]c4ccc(O)cc34)C(=O)O)c12 (stereo not drawn) | -1.41 |
| S=C(NCCCN1CCOCC1)Nc1ccc(-c2nc3ccccc3[nH]2)cc1 | -11.7 |
| C#CCO[C@@H]1C[C@H](n2cnc3c(NC(=O)c4ccccc4)ncnc32)O[C@@H]1CO | 18.4 |
| O=C(O)c1ccccc1NC(=O)C(c1ccccc1)c1ccccc1 | 27.4 |
| O=C(COC(=O)c1ccc([N+](=O)[O-])o1)c1ccccc1 | 14.7 |
| Cc1ccc(CNC(=O)C2CC(c3ccccc3F)=NO2)cc1 (stereo not drawn) | -3.18 |
| O=C(COc1cc(Cl)ccc1Cl)Nc1ccc2c(c1)CCC2 | 9.57 |
| FC(F)(F)c1ccc(NC2=NCCCS2)cc1 | 4.96 |
| CCCC(=O)Nc1ccc2c(c1)nc(CN1CCCCC1)n2C | 2.55 |
| CN1CCN(S(=O)(=O)c2cccc(C(=O)Nc3ccc(Br)cc3Br)c2)CC1 | -44.2 |
| CS(=O)(=O)NN1C(=O)c2ccccc2NC1c1cccc2cccnc12 (stereo not drawn) | -0.225 |
| Cc1ccc(Cl)cc1NC(=O)c1cc(NC(=O)CCCC(=O)O)ccc1N1CCCCC1 | -5.59 |
| CCC(=Cc1ccc(CC)cn1)CC | 1.92 |
| CCC(CC)c1nnc(NC(=O)C2CC(=O)N(C3CCCC3)C2)s1 (stereo not drawn) | -2.25 |
| O=c1oc2ccc(Cl)cc2nc1/C=C(\O)c1ccco1 | -13.6 |
| CC(=O)N1CCN(C(=O)c2ccco2)CC1 | 28.5 |
| Cc1c(-c2cccc(NC(=O)c3ccco3)c2)nc2ncccn12 | -13.3 |
| NNC(=O)CSc1nnc(-c2ccccc2)n1-c1ccccc1 | 8.61 |
| O=C(c1ccc(Cl)cc1)n1c(NCc2ccccc2)n[nH]c1=S | 17.2 |

| SMILES | hERG current change (%, negative = inhibition) at 10uM [%] |
| --- | --- |
| O=C(CNC(=O)c1ccco1)N/N=C/c1ccc(C(=O)O)cc1 | 19.9 |
| CSc1cccc(NC(=O)CN(C)S(=O)(=O)c2ccccc2)c1 | 0.276 |
| COc1cccc(/C=C/C(=O)c2ccc[nH]2)c1 | 3.13 |
| COc1ccc(-c2nc(-c3cccc(C)c3)[nH]c(=O)c2C#N)cc1 | 14.6 |
| COc1ccc(S(=O)(=O)N2CCCCC2)cc1NC(=O)C1CCCO1 (stereo not drawn) | -12.5 |
| CS(=O)(=O)N(CCc1ccccc1)CC(=O)N1CCCCC1 | 4.29 |
| CCOc1ccc(NC(=O)CSc2nncn2C)cc1 | 18.7 |
| Cc1ccc(Nc2nc(N3CCN(C)CC3)nc(N)c2[N+](=O)[O-])cc1C | -4.6 |
| CCN(CC(=O)NCc1cccs1)C(=O)c1ccc(NS(=O)(=O)c2cccc([N+](=O)[O-])c2)cc1 | -19.7 |
| Cn1c(CNS(=O)(=O)c2ccc(Cl)cc2)n[nH]c1=S | 14.4 |
| COC(=O)c1cc2c(ccn2C)n1C | 19.5 |
| CCC(c1nnnn1Cc1cccs1)N1CCN(C(=O)c2ccco2)CC1 (stereo not drawn) | -36.5 |
| CCCOc1ccc(OC(=O)c2ccc(Br)o2)cc1 | 7.2 |
| O=S(=O)(/C=C/c1ccccc1)Nc1ccc2c(c1)OCO2 | -24.9 |
| CCCCC(=O)Nc1ccc(C(=O)NCc2ccncc2)cc1 | 3.31 |
| Cc1ccc(OCCCC(=O)Nc2ccc3c(c2)OCCO3)cc1 | -7.83 |
| CN(Cc1ccc(-n2cccn2)cc1)Cc1nc(-c2cnccn2)no1 | -58.2 |
| COc1cccc(S(=O)(=O)Nc2cccnc2)c1 | 16.4 |
| CN(C)CCN(C(=O)C1CCN(S(=O)(=O)c2cccs2)CC1)c1nc2ccc(F)cc2s1.Cl | -31.1 |
| CCCCC(=O)N/N=C/c1c(O)n(C2CC2)c(=S)[nH]c1=O | 1.52 |
| Cn1c(=O)n(C)c2cc(S(=O)(=O)NCCO)ccc21 | 1.5 |
| Cc1ccccc1NC(=S)NC1CC2CCC(C1)N2Cc1ccco1 (stereo not drawn) | 0.85 |
| CCCCCCNC(=O)CC(NS(=O)(=O)c1ccc(OC)cc1)C(C)C (stereo not drawn) | -12.6 |

| SMILES | hERG current change (%, negative = inhibition) at 10uM [%] |
| --- | --- |
| CC1(c2nnc(-c3cccc(Cl)c3)o2)CC(c2ccccc2)=NO1 (stereo not drawn) | 2.88 |
| CCc1cccc(NC(=O)[C@@H]2CCCN2C2=NS(=O)(=O)c3ccccc32)c1 | -35.1 |
| CCOc1ccc(NC(=O)c2cccc3c2C(=O)N(CCOC)C3)cc1 | 13.5 |
| CCCN1C(=O)/C(=C\C=C2/C=CN(CC)c3ccccc32)SC1=S | 7.49 |
| O=C(NCCN=C1NS(=O)(=O)c2ccccc21)c1ccc2nccnc2c1 | 14.7 |
| CC1CC(C)CN(C(=O)c2cc(-c3ccccn3)nc3ccccc23)C1 (stereo not drawn) | -6.19 |
| COc1ccccc1CN1CC(C(=O)NCc2ncccc2C)CCC1=O (stereo not drawn) | -3.69 |
| Cc1cc(C(=O)N2CCCC(C(=O)c3cccc(C(F)(F)F)c3)C2)n[nH]1 (stereo not drawn) | 0.443 |
| Cc1cccc(C)c1NC(=O)COn1nnc2ccc(C(F)(F)F)cc21 | -3.63 |
| CCOc1ccc2nc(NC(=O)C3CCCO3)sc2c1 (stereo not drawn) | 1.55 |
| COc1ccc(C(=O)Nc2ccc(CN3CCCCC3)cc2)cc1 | -40.3 |
| O=C(OCc1ccccc1)C1CCCN1C(=O)c1ccccc1[N+](=O)[O-] (stereo not drawn) | -8.34 |
| C=Cn1c(N2CCOCC2)nc2c1c(=O)[nH]c(=O)n2C | -11.5 |
| COc1cc(O)c(CC=C(C)C)c(O)c1C(=O)CCc1ccc(O)cc1 | 4.79 |
| O=C(COc1ccccc1-c1ccccc1)N/N=C/c1cccc2ccccc12 | 0.297 |
| C/C(CCCO)=N/Nc1ccc([N+](=O)[O-])cc1[N+](=O)[O-] | -29.4 |
| Cc1ccc(-c2nnn(CC(=O)N(c3cccc(F)c3)C(C(=O)NC3CCCC3)c3ccco3)n2)o1 (stereo not drawn) | 15.1 |
| Cc1cc(C)n(-c2nc3ccccc3c(=O)n2OCc2ccc(F)cc2)n1 | 8.17 |
| CCC(CC)C(=O)OCC(=O)Nc1cccc([N+](=O)[O-])c1 | -12.3 |
| CCOc1ccc(NC(=O)C2CC(=O)N(C(C)C)C2)cc1 (stereo not drawn) | 12.6 |
| O=C(Cc1ccccc1)Nc1cccc([N+](=O)[O-])c1 | 4.54 |
| COc1cccc2cc(C(N)=O)/c(=N/NC(=O)COc3ccc(Cl)cc3)oc12 | 14.7 |
| COC(=O)CSc1nnc(-c2ccccc2OC)o1 | 12 |

| SMILES | hERG current change (%, negative = inhibition) at 10uM [%] |
| --- | --- |
| CCSc1nnc(NC(=O)C2CCN(S(=O)(=O)c3ccccc3C(F)(F)F)CC2)s1 | -3.48 |
| COc1cc(CCC(=O)OCC(=O)N(CCC#N)c2ccccc2)cc(OC)c1OC | -5.22 |
| CC1(C)Cc2nc(NCCN3CCOCC3)c(C#N)cc2CO1 | -6.05 |
| CC1(C)Cc2c(sc3c2C2=NCCN2C=N3)CS1.Cl | -16.3 |
| CCOC(=O)c1sc2nc(C)nc(NCc3ccc(Cl)cc3)c2c1C | -80.6 |
| CC(=O)c1ccc(OCC(O)CN2CCN(S(=O)(=O)c3cccc(Br)c3)CC2)cc1 (stereo not drawn) | 22.8 |
| O=C(CN1CCN(S(=O)(=O)N2CCCCCC2)CC1)Nc1ccc(F)cc1 | -74.9 |
| Cc1ccc(Cc2cnc(NC(=O)c3cccs3)s2)cc1 | -5.59 |
| COc1ccc(Cn2c(CO)cnc2SCC(=O)Nc2cc(C)on2)cc1 | 10.7 |
| N=c1oc2ccccc2cc1C(=O)N/N=C/c1ccccc1 | -25.1 |
| COc1ccc(NS(=O)(=O)c2ccc(NC(=S)NCC3CCCO3)cc2)cc1 (stereo not drawn) | 5.45 |
| CCOC(=O)c1cc(C)n(-c2ccc(OC)c(OC)c2)c1C | -16.5 |
| COc1ccc(-n2c(Cc3cc(=O)[nH]c(=O)[nH]3)nnc2SCC(=O)Nc2cc(C(F)(F)F)ccc2Cl)cc1 | -3.73 |
| CS(=O)(=O)N1CCN(C(=O)Cc2ccc([N+](=O)[O-])cc2)CC1 | 0.692 |
| COc1cc(OC)c(C(=O)Nc2ncn[nH]2)cc1OC | -1.15 |
| COc1ccc(NC(=S)Nc2ccc(Oc3ccccc3)cc2)cc1 | 3.14 |
| CC1CN(C(=O)CCC(=O)NCc2ccccc2Cl)c2ccccc2S1 (stereo not drawn) | -17.9 |
| CC(C)P(=O)(Cc1cccc(C#N)c1)C(C)C | -0.435 |
| Cc1cccc(NC(=O)CCc2nc3sc4c(c3c(=O)[nH]2)CCCC4)n1 | -3.28 |
| Cc1nnc(N2C(=O)c3cccc4c([N+](=O)[O-])ccc(c34)C2=O)s1 | 4.88 |
| Cc1ccc(-n2c3nc(=O)[nH]c(=O)c-3cc3cc([N+](=O)[O-])ccc32)cc1C | -26.9 |
